Assay results from the supplement of paper PMC3334620.
Over roughly 33,000 sequences, “E-score (-0.5 to 0.5)” has its median near -0.035; the highest 2% begin near 0.34. The list shows a part of the results.

Target: T1, Mot3 (UniProt P54785)
T1 sequence: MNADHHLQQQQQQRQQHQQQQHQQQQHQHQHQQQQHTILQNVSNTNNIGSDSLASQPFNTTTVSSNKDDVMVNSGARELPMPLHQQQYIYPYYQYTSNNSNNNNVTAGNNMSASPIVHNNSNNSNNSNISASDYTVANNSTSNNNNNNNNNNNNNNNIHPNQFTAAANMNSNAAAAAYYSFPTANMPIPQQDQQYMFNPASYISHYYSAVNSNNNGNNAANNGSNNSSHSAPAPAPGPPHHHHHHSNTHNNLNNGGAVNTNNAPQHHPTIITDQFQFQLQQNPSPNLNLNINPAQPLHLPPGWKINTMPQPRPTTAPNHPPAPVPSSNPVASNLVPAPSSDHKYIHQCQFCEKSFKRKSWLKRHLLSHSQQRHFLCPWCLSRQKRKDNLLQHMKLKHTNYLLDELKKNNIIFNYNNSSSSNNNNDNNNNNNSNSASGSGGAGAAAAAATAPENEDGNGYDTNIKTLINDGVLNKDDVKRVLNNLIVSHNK
Assay: PBM E-score (8-mer binding enrichment) (E-score (-0.5 to 0.5)); higher = stronger / more preferred TF binding; most listed sequences are background and not binding sites
Settings: protein concentration: 200 nM; construct: GST-full length
Outline: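 Using PURExpress in vitro transcription/translation, GST-tagged yeast transcription factors were made in full-length or DNA-binding-domain form. These were applied at about 100-200 nM to double-stranded universal all-10-mer Agilent arrays, and bound protein was detected with fluorescent anti-GST. Scans were normalised with masliner before the Universal PBM Analysis Suite assigned E-scores to ungapped eight-base words pooled with their reverse complements.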

Row | Sequence | PBM E-score
1 | ACGTTAGT | 0.103
2 | CCCCTTCA | 0.12
3 | GGCAGACC | -0.254
4 | GCGTACCA | 0.0581
5 | AGTGGCGC | -0.296
6 | ACCTTCGT | 0.095
7 | CGTCAGAA | -0.0792
8 | CTCTTTCA | -0.184
9 | AGGGTGTG | 0.0341
10 | GAGTCGGC | -0.208
11 | ATTGGTGC | -0.0723
12 | GCGGCGCA | -0.264
13 | GAACAAGA | 0.224
14 | CTATACAA | 0.0964
15 | TAATAATA | 0.22
16 | GGTCCGGA | -0.139
17 | CGATGTTC | -0.15
18 | TAGGCTCA | 0.109
19 | CAGCACCA | -0.254
20 | CGGAGCGC | -0.097
21 | GTTCTGAA | 0.28
22 | AAATAGCC | -0.0956
23 | CAGATCCG | -0.244
24 | GGCAGCAC | 0.106
25 | CTTGGAAC | 0.0225

Row | Sequence | PBM E-score
26 | CACAACTG | 0.0712
27 | GCGTTCTA | -0.106
28 | AAAGATGG | -0.0558
29 | CATTATCC | 0.0704
30 | CACGGTAC | 0.00298
31 | CCTGCACC | -0.0282
32 | GAAGTATA | -0.0302
33 | GAGCATGA | -0.12
34 | GAGGAGCA | -0.138
35 | ACTAAGTG | 0.00975
36 | TCTTGACA | 0.204
37 | CGGTCTAA | -0.109
38 | CGGGCGTA | -0.0528
39 | CCAGAACA | -0.027
40 | GCAAAGCC | -0.0572
41 | AAAACTAG | 0.121
42 | ATCGTTTC | 0.0191
43 | CTGAACCA | 0.0648
44 | TGAATCCA | -0.0279
45 | TGCAGACA | 0.0246
46 | CTTTCAGA | -0.0529
47 | AAGGCTGC | -0.00639
48 | CAACGAGC | -0.0853
49 | AATCGTGC | 0.189
50 | GTCCAAAA | 0.0252

Row | Sequence | PBM E-score
51 | AACGACAT | 0.206
52 | AAAAAGTC | 0.00695
53 | CTAGTCGA | -0.0682
54 | ACCAGACA | 0.0571
55 | GACCATGA | -0.291
56 | AACTTGAT | 0.202
57 | AGTAGTAT | 0.101
58 | GGACGTAC | -0.135
59 | CTATACCA | -0.00513
60 | CGAGTCAG | -0.256
61 | CAGCTGAG | -0.0215
62 | ACAGCAGC | -0.0207
63 | CACTCCAG | -0.177
64 | AATGCCTA | 0.359
65 | CGACGGCG | -0.23
66 | ACTTACCT | 0.202
67 | CGCCAATA | -0.0174
68 | AGTGAGAC | -0.249
69 | TCATGGGA | -0.166
70 | CTAGGCGC | 0.041
71 | GAAGTAAA | 0.102
72 | AATTAACC | 0.0231
73 | AAAGCTAT | 0.234
74 | CATAGAGC | -0.239
75 | AATGCACC | 0.0173

Row | Sequence | PBM E-score
76 | CTGGAAGC | -0.226
77 | AAAGGCCA | -0.00692
78 | AGCAACGC | 0.152
79 | ACATTACA | 0.357
80 | ACCAGTAA | 0.016
81 | ATACGACA | 0.125
82 | ATAAGAAT | -0.00099
83 | ACTGACTC | -0.249
84 | GATCCATA | -0.201
85 | CTGAGGTC | -0.255
86 | CAAGTGAC | -0.181
87 | CTGGGTTA | 0.0528
88 | GAGGTTCC | 0.0675
89 | CCTCTTGC | 0.0662
90 | GAACGCCA | -0.0986
91 | ACCCGGTA | 0.0102
92 | TGCTTGAA | 0.125
93 | CATTGTGA | -0.0102
94 | CCTCGGGC | -0.147
95 | ACGGAGGA | 0.0801
96 | CCACATTA | 0.0425
97 | CGCGAGTA | 0.0414
98 | AACGACGG | -0.0151
99 | TAACTCAA | 0.117
100 | CCTTGCAG | -0.0164

Row | Sequence | PBM E-score
101 | GCGAACAC | -0.0397
102 | ATCTGCTG | -0.156
103 | ATATGCGA | -0.0974
104 | GGCCTCAC | -0.1
105 | AAACTGTG | 0.136
106 | GATGACAA | 0.101
107 | AGGCGCTC | 0.214
108 | CTCACCTC | -0.177
109 | CCAGGGGC | -0.137
110 | CTCCCCCA | -0.217
111 | CTGGTGTC | -0.212
112 | CTCGACAG | -0.12
113 | AAGGAGCA | -0.0482
114 | CACAATCC | 0.0246
115 | ACTCACGA | 0.0879
116 | ATTTTTAG | -0.0236
117 | GACACTGC | -0.0476
118 | CCATAACC | -0.127
119 | GAGCTGCC | -0.0189
120 | CGGAAAGA | -0.166
121 | CCAAACTA | 0.129
122 | AACGAACT | -0.111
123 | TCGTCGCA | -0.141
124 | ACAACGAG | 0.0604
125 | ATGCGGTA | -0.239

Row | Sequence | PBM E-score
126 | TATTACAA | 0.297
127 | CCGTCTGC | -0.129
128 | AAATGTCG | 0.107
129 | AGCCAAAT | -0.0958
130 | AATCTCAT | 0.119
131 | CAGTCACA | 0.181
132 | CTAGGGGA | -0.216
133 | CGAATTCA | -0.114
134 | CCTACGTA | 0.257
135 | CTGGATCA | -0.0828
136 | AAATGGCG | 0.0242
137 | AGCCAGGC | 0.24
138 | CGGCAATA | 0.0917
139 | TAGAACTA | -0.0352
140 | ACGATAGT | 0.144
141 | CTGGGGGC | -0.151
142 | ATCGGTTG | -0.0221
143 | ATGAGGCG | -0.119
144 | AGCAACGG | -0.185
145 | AGCAATGA | -0.185
146 | GGAGTTCA | -0.0454
147 | TGATCACA | -0.0455
148 | CAGGATTC | 0.0484
149 | GCACCTTA | 0.0482
150 | ACTTAGAG | -0.224

Row | Sequence | PBM E-score
151 | CGGACTAC | -0.0735
152 | CAGCAGGC | 0.315
153 | CGGCCACG | -0.196
154 | CGATCACG | 0.0607
155 | CGCGAAGC | 0.0278
156 | ACAGTCTC | -0.109
157 | AGCGCAGG | -0.005
158 | ACGTCCAT | 0.00297
159 | AGGTGATC | -0.162
160 | GAGGGTAC | -0.16
161 | AGCCGGTG | -0.171
162 | ATCCTACC | -0.0465
163 | CTCGCAGA | -0.354
164 | ACGTATTA | 0.248
165 | GGGTTACA | 0.0512
166 | CACTCGTA | 0.0815
167 | TCCGCTCA | -0.00098
168 | ATTGAAAC | 0.0723
169 | ACTAATGA | -0.00441
170 | GGAATTGA | 0.0808
171 | CCGGATCC | -0.266
172 | CCCAGTCA | -0.204
